Laboratory results from publication PMC4336329 (PLoS ONE, 2015).
Screen size: about 310,000 compounds; about 2,200 (0.71%) showed an effect of 50% or more. The effect is printed as a negative number. The list shows a part of the results.

molecular target: human ether-à-go-go-related gene (hERG) potassium channel (human, UniProt Q12809); test: primary screen, population patch clamp on CHO cells stably expressing hERG
Sequence (Q12809 whole entry, looked up): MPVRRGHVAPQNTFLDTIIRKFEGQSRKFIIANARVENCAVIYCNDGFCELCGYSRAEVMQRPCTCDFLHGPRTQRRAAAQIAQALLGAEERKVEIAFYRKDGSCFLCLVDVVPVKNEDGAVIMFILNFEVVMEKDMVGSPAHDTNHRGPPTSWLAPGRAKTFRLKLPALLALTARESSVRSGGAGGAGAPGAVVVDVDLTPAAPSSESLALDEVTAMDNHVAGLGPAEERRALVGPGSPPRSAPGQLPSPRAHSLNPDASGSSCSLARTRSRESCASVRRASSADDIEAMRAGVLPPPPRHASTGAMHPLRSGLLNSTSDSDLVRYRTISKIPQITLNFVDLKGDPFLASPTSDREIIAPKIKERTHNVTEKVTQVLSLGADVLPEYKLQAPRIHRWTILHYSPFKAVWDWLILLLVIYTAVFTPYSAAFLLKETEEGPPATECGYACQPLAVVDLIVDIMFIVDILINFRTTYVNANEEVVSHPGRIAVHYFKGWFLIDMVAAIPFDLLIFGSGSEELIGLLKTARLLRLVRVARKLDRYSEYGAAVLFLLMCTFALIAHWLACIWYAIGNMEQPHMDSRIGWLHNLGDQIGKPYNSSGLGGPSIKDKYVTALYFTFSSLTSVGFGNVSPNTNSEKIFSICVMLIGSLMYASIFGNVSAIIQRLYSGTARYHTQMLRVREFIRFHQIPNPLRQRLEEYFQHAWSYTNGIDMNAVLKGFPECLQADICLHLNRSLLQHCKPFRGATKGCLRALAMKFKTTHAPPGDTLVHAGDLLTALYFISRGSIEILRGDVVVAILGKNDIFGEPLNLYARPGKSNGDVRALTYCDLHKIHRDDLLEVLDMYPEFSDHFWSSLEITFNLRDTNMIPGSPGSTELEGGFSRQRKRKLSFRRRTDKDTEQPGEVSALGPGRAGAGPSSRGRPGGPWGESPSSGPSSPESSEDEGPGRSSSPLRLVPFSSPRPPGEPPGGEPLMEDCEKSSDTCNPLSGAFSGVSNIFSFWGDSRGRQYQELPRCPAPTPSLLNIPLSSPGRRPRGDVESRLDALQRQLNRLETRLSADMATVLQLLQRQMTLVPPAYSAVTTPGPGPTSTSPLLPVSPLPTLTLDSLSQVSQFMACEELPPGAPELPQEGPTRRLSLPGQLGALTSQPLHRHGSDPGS

| SMILES | hERG current change (%, negative = inhibition) at 1uM [%] |
| --- | --- |
| Cn1cccc1-c1nc2ccc(NC(=O)c3ccc([N+](=O)[O-])cc3)cc2[nH]1 | -2.9 |
| O=c1ccc(OCCOc2ccccc2)nn1-c1ccccc1 | -3 |
| CCc1ccccc1Nc1nc(N)nc(COC(=O)c2c(C)noc2C)n1 | 4.89 |
| COC(=O)C1C(=O)C=C(Nc2ccc(F)cc2F)CC1c1ccccc1 (stereo not shown) | 8.97 |
| CC(C)c1ccc(NC(=O)COC(=O)c2cc(=O)[nH]c3ccccc23)cc1 | 9.93 |
| CC1(OC(=O)C2CCCC2)C(=O)C=C2C=C(c3ccsc3)N(C3CC3)C=C2C1=O (stereo not shown) | 16.1 |
| COc1ccccc1C(=O)Nc1ccc(S(=O)(=O)Nc2cnc3ccccc3n2)cc1 | 5.66 |
| COc1ccc2c(c1)[C@H]1[C@H](CO2)[C@H](c2ccccc2)[C@]2(C)C(=O)Nc3cc(F)c(F)cc3C(=O)N12 | 11.1 |
| CSc1ccc(NC(=O)Nc2ccccc2C(N)=O)cc1 | 6.12 |
| Cc1ccc(S(=O)(=O)Cc2ccc(C(=O)NCCCN3CCCC3=O)o2)cc1 | 12.8 |
| CCOC(=O)c1c(S(=O)(=O)NCC2CCN(Cc3cccc(F)c3)CC2)c(C)n(C)c1C | -14.1 |
| Cc1ccc(-c2c(C(=O)NNC(=S)NCC3CCCO3)csc2C)cc1 (stereo not shown) | 24 |
| CC1Cc2ccccc2N1C(=O)c1nn(C)cc1Br (stereo not shown) | 20.9 |
| O=C(CN1CCN(c2ccccc2O)CC1)NC(=O)NC1CCCC1 | 5.02 |
| Cc1ccc(N(CC(=O)NCc2ccc(F)cc2)S(=O)(=O)c2c(C)n[nH]c2C)cc1 | -4.25 |
| c1ccc2c(Nc3nnc(-c4ccncc4)s3)cccc2c1 | 4.88 |
| Cc1cccc(CNC(=O)C(C)n2nc(C)c3c(C)n(-c4ccccc4)nc3c2=O)c1 (stereo not shown) | -2.53 |
| O=C(CSc1nnc(C2CC2)n1C1CC1)c1ccc(F)c(F)c1 | -6.81 |
| CC(=O)N1CCOc2ccc(S(=O)(=O)N3CCCC(C)C3)cc21 (stereo not shown) | 13.9 |
| O=C(O)CNC(=O)C12CC3CC(CC(Cl)(C3)C1)C2 | 9.46 |
| O=C(CCNC(=O)N1CCn2c1nc1ccccc12)NCc1ccccc1 | 15.4 |
| Cc1ccc(N=Nc2c(N)nn(-c3ccccc3)c2N)cc1 | 5.45 |

| SMILES | hERG current change (%, negative = inhibition) at 1uM [%] |
| --- | --- |
| COCCn1cc(C(=O)NCCCN2CCC(C)CC2)c2c3ccccc3n(C)c2c1=O | 3.23 |
| O=C(Cn1c(=O)oc2ccccc21)Nc1ccc2c(c1)OCCO2 | 1.2 |
| COc1ccc(CCNC(=O)COC(=O)c2ccc(N3CCCC3=O)cc2)cc1 | 8.56 |
| O=S(=O)(NCCc1ccc(F)cc1)c1cccc2cccnc12 | 8.85 |
| CCn1c(SCC(=O)c2c(N)n(C)c(=O)n(C)c2=O)nnc1-c1ccccc1 | 14.2 |
| O=C(NNS(=O)(=O)c1ccccc1)c1cnn(-c2ccc(Cl)cc2)c1C(F)(F)F | 9.22 |
| Nc1nonc1C(=O)N1CCCC1 | 7.85 |
| COC(CN(C)C(=O)C1CCC(CNS(=O)(=O)c2ccc(C)cc2)CC1)OC (stereo not shown) | 9.91 |
| Cc1cc(C)c(C(=O)COC(=O)Cn2cnnn2)cc1C | -5.32 |
| Cc1ccc(S(=O)(=O)Nc2cc(-c3ccccc3)nn2C)cc1 | 15.2 |
| COc1cccc(C2(O)CCN(CC(=O)Nc3nc(C)cs3)CC2)c1 | 6.84 |
| CC1CN(c2cc(=O)n(-c3ccccc3)c(=O)[nH]2)CC(C)O1 (stereo not shown) | 7.71 |
| O=C(OCC(=O)c1ccco1)c1ccc2ncsc2c1 | 2.76 |
| O=S(=O)(NCCS(=O)(=O)N1CCN(c2ccccc2)CC1)c1ccc(F)cc1 | 4.93 |
| NC(=O)CC(NC(=O)Cc1ccc(Br)cc1)c1ccc(NCCN2CCCC2)c([N+](=O)[O-])c1 (stereo not shown) | -7.71 |
| CCCc1[nH]nc2c1C(c1ccc(OC)c(CSC3=NCCS3)c1)C(C#N)=C(N)O2 (stereo not shown) | -0.0834 |
| CC(CC(=O)NCc1ccc(Cl)cc1)S(=O)(=O)c1ccc2c(c1)NC(=O)CO2 (stereo not shown) | -3.77 |
| COc1ccc(CCNC(=O)c2ccc3nc(-c4ccco4)c(-c4ccco4)nc3c2)cc1OC | 5.6 |
| COc1ccc([N+](=O)[O-])cc1NC(=O)c1cn(-c2ccc(Cl)cc2)c(=O)c2ccccc12 | 12.1 |
| C=Cc1ccc2c(c1)OCCOCCOCCOCCOCCO2 | -70.2 |
| Clc1nc(-c2cccnc2)nc2scc(-c3ccccc3)c12 | 14 |
